Measurements from the supplement of paper PMC3334620.
In all, about 33,000 sequences were measured (“E-score (-0.5 to 0.5)”: median about -0.01, highest 2% from about 0.26 on). The list shows a part of the results.

What follows are sequences tested against Ste12 (UniProt P13574) (assay: PBM E-score (8-mer binding enrichment) (E-score (-0.5 to 0.5)); higher = stronger / more preferred TF binding; most listed sequences are background and not binding sites). Conditions: protein concentration: 200 nM; construct: GST-DNA-binding domain.
How it was run: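 Bound GST-tagged yeast transcription factors, applied at about 100-200 nM to double-stranded universal all-10-mer Agilent arrays, were detected with fluorescent anti-GST. Scans were normalised with masliner. A modified Wilcoxon-Mann-Whitney statistic, the E-score, was assigned to each ungapped eight-base word pooled with its reverse complement by the Universal PBM Analysis Suite.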

Sequence	PBM E-score
CTTAAATA	0.198
GCCAGTTA	-0.0858
GGCGGACA	0.0615
ACTCCCCG	0.07
AATTGCCG	-0.136
CGCGTTTA	0.113
AAGGAGAC	-0.176
CATGGGAA	-0.0149
ATGTACGG	-0.0427
CTTGTGGA	0.115
AGGTAGCA	-0.255
GGTAATAA	0.165
AGCAATAT	-0.0848
AGAGTCAA	-0.115
CTAATTAC	-0.0517
CGAAGCCG	-0.157
ACATGCTA	-0.215
CGACGTCG	0.0287
GACAGAGA	-0.0566
GATTATCA	-0.00605
AGTTGGCG	0.012
GATGGTAA	0.0297
GAGTTAGA	-0.0281
AATAAAAA	0.229
CGAAGTCG	0.0297

Sequence	PBM E-score
ACCATAGG	0.00547
CACTTCAA	0.052
AATGATAC	0.278
CGAGTACC	-0.113
AGGCGCAC	0.0196
ATACTGTA	0.0896
CATTTGCC	-0.194
GACGTCTA	-0.0324
ACAACCGG	0.0456
TTCTGAAA	0.365
CGGTCAGC	0.114
AAATTAGC	0.123
CACCTCCC	-0.0665
GCCGAGCA	-0.148
GTATATCA	0.0869
AAAGAGGA	-0.0896
AAACAACT	0.174
AGAAGGGA	-0.264
GGAGGTTA	-0.16
ACGGCCGC	0.00686
GGAAGGGA	-0.106
CCGGACGG	-0.196
CTCTAGGC	-0.0144
GGAGACCA	-0.0241
CTGCGTGC	-0.111

Sequence	PBM E-score
CCCTGCTC	-0.175
CTTTACCC	0.0427
AGGGTGAA	0.0851
CATATTCA	0.164
CGGCATGA	0.0694
CCTGAAAC	0.487
CACTGATC	-0.0665
CGCCCTTA	-0.0507
CCGGTCAC	-0.0251
AGAAACTC	0.0266
CTCAACTC	0.141
ACCGCGTA	0.0507
AACGATCT	0.153
ATACAGGA	0.0595
GCTACTCA	-0.229
AGCGCACT	-0.226
ACCATCGG	-0.117
CCAACGGA	0.0256
AGCGCGCC	-0.0363
GCGTACTA	-0.316
ATGAGCAA	0.104
AAGACGAT	-0.0053
ACAAGTGA	-0.128
CGAAGTGA	-0.00239
GACACCCC	-0.0426

Sequence	PBM E-score
AGGACAGC	-0.181
CACTAACC	-0.19
GCATAGAC	-0.152
AGAAACAT	0.32
ACGTTCGG	-0.101
GCACGAGC	-0.139
GCTCCGCC	0.0389
ACTGTTAG	-0.105
AGTCTACC	-0.294
AGGGACCA	-0.0899
CAACAGAA	-0.019
ATTAGAAG	0.105
GATGGTTA	-0.0584
CAGACAAG	-0.101
AAATCGAA	0.256
CCAGGAGG	-0.154
CAGGCCAG	-0.0417
AGGTTGCA	0.0266
ATCCGAGG	0.0546
ATGCGAAG	-0.0618
CCAAAATA	0.21
TCCCCCGA	-0.0459
CATGTCAC	0.182
ATACTGAG	0.188
AATCGATG	0.065

Sequence	PBM E-score
AAAGGTAC	-0.0157
GGCGCCCA	-0.121
CTGGTGGA	-0.159
AAATCATG	0.239
CCGTAAAG	0.0165
CGCCGAGC	-0.0954
CCTTGTGC	-0.0236
TGCCCCAA	0.0853
CGTAGACA	-0.269
GAGGTTAC	0.048
GAAAATAC	0.203
GGAGCCCC	-0.232
CAAAGAGC	-0.0793
CTTTTCAA	0.221
ATTCAGCA	0.0048
CAAATACG	0.00305
CGGGGTTC	0.0438
AACGAATG	0.0894
CAGTATAC	-0.00596
AAAGGGAA	0.0362
GGGGGAAA	0.241
CTAAATGC	0.0198
CAAGAAAA	0.24
TACCCGCA	0.132
CAATGGAG	-0.164

Sequence	PBM E-score
AGTCACCG	-0.096
GCTTACAA	-0.0186
AGCCTCGA	0.0456
AAAGGGAT	0.00067
AGAAAGCC	-0.13
CTCTCCTC	-0.168
ACCCGCGG	0.176
CGTTCTAC	-0.113
GACTTGAA	0.0172
CCCTGAAG	-0.161
AGAAACCC	0.0469
TAATGTAA	0.194
AGCAGCCA	-0.168
GCCAGCCA	-0.0507
ATGTACCA	0.0535
CAACTACA	0.128
CCCTGGGA	-0.226
GACATGGA	0.0214
CCTGGAGA	-0.108
GATGTGAC	0.231
GATCGATC	0.0593
CACTCGAG	-0.129
CCTCCTCC	0.0915
CGGTGGAC	-0.157
GCAAGTCC	-0.228

Sequence	PBM E-score
CCGCTACA	0.138
ATTACCAA	0.0123
AACATGCC	-0.0549
AAGGGCCG	-0.262
GGTACCCA	-0.305
CTTAGTGA	-0.00728
AGACCATA	0.211
CGAGCCGA	-0.0584
ATGACTCC	-0.203
CTCGGGCA	-0.0957
CCAAGAAA	0.0914
TGCACGCA	-0.0625
AATACTAA	0.196
AGGGCATC	-0.286
CATGCGTA	0.144
ATCAAAAT	0.192
GGTAGGAA	-0.172
AACGTTCA	0.116
TAACCGAA	0.12
CGCTTAAG	-0.131
ATCTGATC	-0.0595
GGTGAATA	-0.0106
